# The list shows a part of the results.
# Assays:
# Test in all cases: glycan array binding signal (z-score within array); higher = stronger binding
# Conditions in all cases: glycan notation: IUPAC condensed, linker removed; mutation: K348A
# [1] = target: Neu5Ac(a2-3)Gal(b1-3)[Fuc(a1-4)]GlcNAc
# Procedure, shortened: (§1)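 The binding signal is a Z-score computed within each array. Data were drawn from 3228 arrays in the Consortium for Functional Glycomics database, restricted to those with a known protein sequence. Scores were averaged over arrays of the same protein sequence at different concentrations or buffers, and over linkers, and negative values can be taken as non-binding.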
# [2] = target: Neu5Ac(a2-3)Gal(b1-3)[Fuc(a1-4)]GlcNAc(b1-3)Gal(b1-4)[Fuc(a1-3)]GlcNAc
# Procedure, shortened: as §1
# [3] = target: Neu5Ac(a2-3)Gal(b1-3)[Neu5Ac(a2-3)Gal(b1-4)]GlcNAc
# Procedure, shortened: as §1
# [4] = target: Neu5Ac(a2-3)Gal(b1-3)[Neu5Ac(a2-6)]GalNAc
# Procedure, shortened: as §1
# Neu5Ac(a2-3)Gal(b1-4)Glc = target: Neu5Ac(a2-3)Gal(b1-4)Glc
# Procedure, shortened: as §1
# [5] = target: Neu5Ac(a2-3)Gal(b1-4)GlcNAc
# Procedure, shortened: as §1
# [6] = target: Neu5Ac(a2-3)Gal(b1-4)GlcNAc(b1-2)Man(a1-3)[GlcNAc(b1-2)Man(b1-4)GlcNAc(b1-2)Man(a1-6)]Man(b1-4)GlcNAc(b1-4)GlcNAc
# Procedure, shortened: as §1
# [7] = target: Neu5Ac(a2-3)Gal(b1-4)GlcNAc(b1-2)Man(a1-3)[Neu5Ac(a2-6)Gal(b1-4)GlcNAc(b1-2)Man(a1-6)]Man(b1-4)GlcNAc(b1-4)GlcNAc
# Procedure, shortened: as §1
# [8] = target: Neu5Ac(a2-3)Gal(b1-4)GlcNAc(b1-3)Gal(b1-3)GlcNAc
# Procedure, shortened: as §1
# [9] = target: Neu5Ac(a2-3)Gal(b1-4)GlcNAc(b1-3)Gal(b1-4)GlcNAc
# Procedure, shortened: as §1
# [10] = target: Neu5Ac(a2-3)Gal(b1-4)GlcNAc(b1-3)Gal(b1-4)GlcNAc(b1-3)Gal(b1-4)GlcNAc
# Procedure, shortened: as §1
# [11] = target: Neu5Ac(a2-3)Gal(b1-4)GlcNAc(b1-3)Gal(b1-4)[Fuc(a1-3)]GlcNAc
# Procedure, shortened: as §1
# [12] = target: Neu5Ac(a2-3)Gal(b1-4)GlcNAc(b1-6)[Gal(b1-3)]GalNAc
# Procedure, shortened: as §1
# [13] = target: Neu5Ac(a2-3)Gal(b1-4)GlcNAc(b1-6)[Neu5Ac(a2-3)Gal(b1-3)]GalNAc
# Procedure, shortened: as §1
# [14] = target: Neu5Ac(a2-3)Gal(b1-4)GlcNAc6S
# Procedure, shortened: as §1
# [15] = target: Neu5Ac(a2-3)Gal(b1-4)[Fuc(a1-3)]GlcNAc
# Procedure, shortened: as §1
# [16] = target: Neu5Ac(a2-3)Gal(b1-4)[Fuc(a1-3)]GlcNAc(b1-3)Gal
# Procedure, shortened: as §1
# [17] = target: Neu5Ac(a2-3)Gal(b1-4)[Fuc(a1-3)]GlcNAc(b1-3)Gal(b1-4)GlcNAc
# Procedure, shortened: as §1
# [18] = target: Neu5Ac(a2-3)Gal(b1-4)[Fuc(a1-3)]GlcNAc(b1-3)Gal(b1-4)[Fuc(a1-3)]GlcNAc(b1-3)Gal(b1-4)[Fuc(a1-3)]GlcNAc
# Procedure, shortened: as §1
# [19] = target: Neu5Ac(a2-3)Gal(b1-4)[Fuc(a1-3)]GlcNAc(b1-6)[Gal(b1-3)]GalNAc
# Procedure, shortened: as §1
# [20] = target: Neu5Ac(a2-3)Gal(b1-4)[Fuc(a1-3)]GlcNAc6S
# Procedure, shortened: as §1
# [21] = target: Neu5Ac(a2-3)Gal6S(b1-4)GlcNAc
# Procedure, shortened: as §1
# [22] = target: Neu5Ac(a2-3)Gal6S(b1-4)[Fuc(a1-3)]GlcNAc
# Procedure, shortened: as §1
# Neu5Ac(a2-3)GalNAc = target: Neu5Ac(a2-3)GalNAc
# Procedure, shortened: as §1
# [23] = target: Neu5Ac(a2-3)GalNAc(b1-4)GlcNAc
# Procedure, shortened: as §1
# [24] = target: Neu5Ac(a2-3)[GalNAc(b1-4)]Gal(b1-4)Glc
# Procedure, shortened: as §1
# [25] = target: Neu5Ac(a2-3)[GalNAc(b1-4)]Gal(b1-4)GlcNAc
# Procedure, shortened: as §1
# [26] = target: Neu5Ac(a2-3)[Neu5Ac(a2-6)]GalNAc
# Procedure, shortened: as §1
# Neu5Ac(a2-6)Gal = target: Neu5Ac(a2-6)Gal
# Procedure, shortened: as §1
# Neu5Ac(a2-6)Gal(b1-4)Glc = target: Neu5Ac(a2-6)Gal(b1-4)Glc
# Procedure, shortened: as §1
# [27] = target: Neu5Ac(a2-6)Gal(b1-4)GlcNAc
# Procedure, shortened: as §1
# [28] = target: Neu5Ac(a2-6)Gal(b1-4)GlcNAc(b1-2)Man(a1-3)[Gal(b1-4)GlcNAc(b1-2)Man(a1-6)]Man(b1-4)GlcNAc(b1-4)GlcNAc
# Procedure, shortened: as §1
# [29] = target: Neu5Ac(a2-6)Gal(b1-4)GlcNAc(b1-2)Man(a1-3)[GlcNAc(b1-2)Man(a1-6)]Man(b1-4)GlcNAc(b1-4)GlcNAc
# Procedure, shortened: as §1
# [30] = target: Neu5Ac(a2-6)Gal(b1-4)GlcNAc(b1-2)Man(a1-3)[GlcNAc(b1-2)Man(b1-4)GlcNAc(b1-2)Man(a1-6)]Man(b1-4)GlcNAc(b1-4)GlcNAc
# Procedure, shortened: as §1
# [31] = target: Neu5Ac(a2-6)Gal(b1-4)GlcNAc(b1-2)Man(a1-3)[Neu5Ac(a2-6)Gal(b1-4)GlcNAc(b1-2)Man(a1-6)]Man(b1-4)GlcNAc(b1-4)GlcNAc
# Procedure, shortened: as §1
# [32] = target: Neu5Ac(a2-6)Gal(b1-4)GlcNAc(b1-2)Man(a1-6)[Gal(b1-4)GlcNAc(b1-2)Man(a1-3)]Man(b1-4)GlcNAc(b1-4)GlcNAc
# Procedure, shortened: as §1
# [33] = target: Neu5Ac(a2-6)Gal(b1-4)GlcNAc(b1-2)Man(a1-6)[GlcNAc(b1-2)Man(a1-3)]Man(b1-4)GlcNAc(b1-4)GlcNAc
# Procedure, shortened: as §1
# [34] = target: Neu5Ac(a2-6)Gal(b1-4)GlcNAc(b1-3)Gal(b1-4)GlcNAc
# Procedure, shortened: as §1
# [35] = target: Neu5Ac(a2-6)Gal(b1-4)GlcNAc(b1-3)Gal(b1-4)[Fuc(a1-3)]GlcNAc(b1-3)Gal(b1-4)[Fuc(a1-3)]GlcNAc
# Procedure, shortened: as §1
# [36] = target: Neu5Ac(a2-6)Gal(b1-4)GlcNAc6S
# Procedure, shortened: as §1
# Neu5Ac(a2-6)GalNAc = target: Neu5Ac(a2-6)GalNAc
# Procedure, shortened: as §1
# [37] = target: Neu5Ac(a2-6)GalNAc(b1-4)GlcNAc
# Procedure, shortened: as §1
# Neu5Ac(a2-8)Neu5Ac = target: Neu5Ac(a2-8)Neu5Ac
# Procedure, shortened: as §1
# [38] = target: Neu5Ac(a2-8)Neu5Ac(a2-3)Gal(b1-4)Glc
# Procedure, shortened: as §1
# [39] = target: Neu5Ac(a2-8)Neu5Ac(a2-3)[GalNAc(b1-4)]Gal(b1-4)Glc
# Procedure, shortened: as §1
# [40] = target: Neu5Ac(a2-8)Neu5Ac(a2-8)Neu5Ac
# Procedure, shortened: as §1
# [41] = target: Neu5Ac(a2-8)Neu5Ac(a2-8)Neu5Ac(a2-3)Gal(b1-4)Glc
# Procedure, shortened: as §1
# [42] = target: Neu5Ac(a2-8)Neu5Ac(a2-8)Neu5Ac(a2-3)[GalNAc(b1-4)]Gal(b1-4)Glc
# Procedure, shortened: as §1
# [43] = target: Neu5Ac(a2-8)Neu5Ac(a2-8)Neu5Ac(a2-8)Neu5Ac(a2-3)[GalNAc(b1-4)]Gal(b1-4)Glc
# Procedure, shortened: as §1
# [44] = target: Neu5Ac(b2-6)Gal(b1-4)GlcNAc
# Procedure, shortened: as §1
# Neu5Ac(b2-6)GalNAc = target: Neu5Ac(b2-6)GalNAc
# Procedure, shortened: as §1
# [45] = target: Neu5Ac9Ac(a2-6)Gal(b1-4)GlcNAc
# Procedure, shortened: as §1
# [46] = target: Neu5Gc(a2-3)Gal(b1-3)GlcNAc
# Procedure, shortened: as §1
# [47] = target: Neu5Gc(a2-3)Gal(b1-3)[Fuc(a1-4)]GlcNAc
# Procedure, shortened: as §1
# Neu5Gc(a2-3)Gal(b1-4)Glc = target: Neu5Gc(a2-3)Gal(b1-4)Glc
# Procedure, shortened: as §1
# [48] = target: Neu5Gc(a2-3)Gal(b1-4)GlcNAc
# Procedure, shortened: as §1
# [49] = target: Neu5Gc(a2-3)Gal(b1-4)[Fuc(a1-3)]GlcNAc
# Procedure, shortened: as §1
# [50] = target: Neu5Gc(a2-6)Gal(b1-4)GlcNAc
# Procedure, shortened: as §1
# Neu5Gc(a2-6)GalNAc = target: Neu5Gc(a2-6)GalNAc
# Procedure, shortened: as §1
# [51] = target: Neu5Gc(b2-6)Gal(b1-4)GlcNAc
# Procedure, shortened: as §1
binder,measurement,setting,value
Surfactant Protein D (Human); Neck + Carbohydrate Recognition Domain (NCRD) (Homo sapiens) (protein) MLLFLLSALVLLTQPLGYLEAEMKTYSHRTMPSACTLVMCSSVESGLPGRDRDGREGPRGEKGDPGLPGAAGQAGMPGQAGPVGPKGDNGSVGEPGPKGDTGPSGPPGPPGVPGPAGREGALGKQGNIGPQGKPGPKGEAGPKGEVGAPGMQGSAGARGLAGPKGERGVPGERGVPGNTGAAGSAGAMGPQGSPGARGPPGLKGDKGIPGDKGAKGESGLPDVASLRQQVEALQGQVQHLQAAFSQYKKVELFPNGQSVGEKIFKTAQFVKPFTEAQLLCTQAGGQLASPRSAAENAALQQLVVAKNEAAFLSMTDSKTEGKFTYPTGESLVYSNWAPGEPNDDGGSEDCVEIFTNGKWNDRACGEARLVVCEF,glycan array binding signal (z-score),[1],-0.174
same,glycan array binding signal (z-score),[2],0.451
same,glycan array binding signal (z-score),[3],-0.178
same,glycan array binding signal (z-score),[4],-0.171
same,glycan array binding signal (z-score),Neu5Ac(a2-3)Gal(b1-4)Glc,-0.17
same,glycan array binding signal (z-score),[5],-0.162
same,glycan array binding signal (z-score),[6],-0.159
same,glycan array binding signal (z-score),[7],-0.177
same,glycan array binding signal (z-score),[8],-0.17
same,glycan array binding signal (z-score),[9],-0.174
same,glycan array binding signal (z-score),[10],-0.147
same,glycan array binding signal (z-score),[11],-0.157
same,glycan array binding signal (z-score),[12],-0.172
same,glycan array binding signal (z-score),[13],-0.176
same,glycan array binding signal (z-score),[14],-0.155
same,glycan array binding signal (z-score),[15],-0.173
same,glycan array binding signal (z-score),[16],-0.173
same,glycan array binding signal (z-score),[17],-0.037
same,glycan array binding signal (z-score),[18],-0.167
same,glycan array binding signal (z-score),[19],-0.015
same,glycan array binding signal (z-score),[20],-0.162
same,glycan array binding signal (z-score),[21],-0.17
same,glycan array binding signal (z-score),[22],-0.173
same,glycan array binding signal (z-score),Neu5Ac(a2-3)GalNAc,-0.147
same,glycan array binding signal (z-score),[23],-0.177
same,glycan array binding signal (z-score),[24],-0.176
same,glycan array binding signal (z-score),[25],-0.17
same,glycan array binding signal (z-score),[26],-0.177
same,glycan array binding signal (z-score),Neu5Ac(a2-6)Gal,-0.158
same,glycan array binding signal (z-score),Neu5Ac(a2-6)Gal(b1-4)Glc,-0.17
same,glycan array binding signal (z-score),[27],-0.162
same,glycan array binding signal (z-score),[28],-0.147
same,glycan array binding signal (z-score),[29],-0.169
same,glycan array binding signal (z-score),[30],-0.173
same,glycan array binding signal (z-score),[31],-0.164
same,glycan array binding signal (z-score),[32],-0.111
same,glycan array binding signal (z-score),[33],-0.173
same,glycan array binding signal (z-score),[34],-0.174
same,glycan array binding signal (z-score),[35],0.254
same,glycan array binding signal (z-score),[36],-0.175
same,glycan array binding signal (z-score),Neu5Ac(a2-6)GalNAc,-0.174
same,glycan array binding signal (z-score),[37],-0.172
same,glycan array binding signal (z-score),Neu5Ac(a2-8)Neu5Ac,-0.164
same,glycan array binding signal (z-score),[38],-0.171
same,glycan array binding signal (z-score),[39],-0.141
same,glycan array binding signal (z-score),[40],-0.173
same,glycan array binding signal (z-score),[41],-0.177
same,glycan array binding signal (z-score),[42],-0.161
same,glycan array binding signal (z-score),[43],-0.154
same,glycan array binding signal (z-score),[44],-0.177
same,glycan array binding signal (z-score),Neu5Ac(b2-6)GalNAc,-0.166
same,glycan array binding signal (z-score),[45],-0.162
same,glycan array binding signal (z-score),[46],-0.174
same,glycan array binding signal (z-score),[47],-0.149
same,glycan array binding signal (z-score),Neu5Gc(a2-3)Gal(b1-4)Glc,-0.132
same,glycan array binding signal (z-score),[48],-0.174
same,glycan array binding signal (z-score),[49],-0.165
same,glycan array binding signal (z-score),[50],-0.173
same,glycan array binding signal (z-score),Neu5Gc(a2-6)GalNAc,-0.168
same,glycan array binding signal (z-score),[51],-0.158

# — the supplement of paper PMC8728848
